Measurements reported in paper PMC4207660, “Identification and Characterization of Hundreds of Potent and Selective Inhibitors of Trypanosoma brucei Growth from a Kinase-Targeted Library Screening Campaign” (PLoS Neglected Tropical Diseases, 2014).

Key:
[1] = target: T1, Human Serum Albumin (HSA) (Homo sapiens, UniProt P02768); test: Protein binding assay (HPLC stationary phase), HSA; type: in vitro ADME; conditions: Measured
T1 construct: purchased Chiral Technologies, France
Experimental: Chemically bonded Human Serum Albumin (HSA) and Alpha-1-acidglycoprotein HPLC stationary phases (Chiral Technologies, France) were used for measuring compounds' binding to plasma proteins, applying linear gradient elution up to 30% iso-propanol. The run time was 6 min, including the re-equilibration of the stationary phases with the 50 mM pH7.4 ammonium acetate buffer. The obtained gradient retention times were standardised using a calibration set of mixtures as described in the references. The average standard error of the assay depends on the binding strength and kinetics of the compounds.

[2] = target: Cytochrome P450 (CYP450) (Homo sapiens, UniProt P08684); test: Cytochrome P450 inhibition profile; type: in vitro ADME; conditions: Measured
Experimental: The P450 inhibition profile of the inhibitors was determined as previously described.

[3] = CLND kinetic solubility assay; type: physicochemical; conditions: phosphate buffered saline, pH 7.4, aqueous buffer, kinetic from dmso stock; Measured; read-out: Aq Sol
Experimental: 5 µL of 10 mM DMSO stock solution was diluted to 100 µL with pH 7.4 phosphate buffered saline, equilibrated for 1 hour at room temperature, filtered through Millipore MultiscreenHTS-PCF filter plates (MSSL BPC). The filtrate was quantified by suitably calibrated flow injection Chemi-Luminescent Nitrogen Detection.

[4] = tested on: T. brucei brucei parasites (Lister 427 strain); test: Dose response growth inhibition assay (resazurin, 72 h); type: cell-based; conditions: Trypanosoma brucei; T. b. brucei growth inhibition; read-out: Tbb pEC50 (converted)
Experimental: Greiner sterile black clear bottom 384-well assay plates were pre-dispensing with 200 nL of compound in each well, from master plates at 1 mM (100% DMSO) containing selection from the GSK compound collection. Controls of 0% response (control 1, 200 nL of 100%DMSO) and 100% response (control 2, 200 nL of 1 mM pentamidine) were included in each assay plate in columns 6 and 18, respectively. Plates containing 200 nL of 100% DMSO were included randomly in the assay, to assess quality through all process. […] After this period, 10 µL of 200 µM resazurin solution in prewarmed HMI-9 were added to each well, and plates were allowed to incubate 2 hours more prior fluorescence reading in a Wallac EnVision Multilabel Plate Reader (Perkin-Elmer). Raw fluorescent data from the Envision plate reader were uploaded into GSK HTS database (ActivityBase). Activity of each well was normalized as a percentage of inhibition per-plate basis using the following equation: [drawing 1]
For dose-response experiments, serial compound dilutions of selected hits from the primary campaign were plotted against compound concentration. Dose response master plates were prepared by 3-fold dilutions (starting with 10 mM DMSO stock solutions), providing 11 concentrations. From these master plates, 200 nL per well was stamped in final assay plates, including the same controls describe in the primary single shot assay. […]

[5] = ChromlogD assay
Experimental: The Chromatographic Hydrophobicity Index (CHI)[22] values were measured using reversed phase HPLC column (Luna C18 (2), Phenomenex, UK) with a fast acetonitrile gradient at starting mobile phase of pH = 7.4. CHI values are derived directly from the gradient retention times by using a calibration line obtained for standard compounds. The CHI value approximates to the volume % organic concentration when the compound elutes. […] The average error of the assay is ±3 CHI unit or ±0.25 ChromlogD.

[6] = CYP3A4, VG substrate, read-out: CYP3A4VG pXC50 (converted)
[7] = CYP3A4, VR substrate, read-out: CYP3A4VR pXC50 (converted)

HSA % binding [1] | IC50 [2, 6] | IC50 [2, 7] | solubility kinetic at 1 h [3] | PFI [5] | SMILES | EC50 [4]
92.8% | 5010 nM | 25100 nM | 5 µM (≈ 2.25 µg/mL) | 9.18 | Cn1c(=O)n(-c2ccc(C(C)(C)C#N)cc2)c2c3cc(-c4cnc(N)c(N)c4)ccc3ncc21 [NEU-0001217] | 6.31 nM
– | 31.6 nM | 6.31 nM | – | – | Cc1occc1-c1ncc(O[C@H](CN)c2ccccc2)cc1-c1c[nH]c2ncccc12 [NEU-0001210] | 63.1 nM

In brackets after ≈: the same amount, converted by molar mass. Where two headings read alike, the source gives them in different places.
